# Assay results taken from PubChem BioAssay AID995 (National Center for Advancing Translational Sciences (NCATS), 2007).
# Screen size: about 72,000 compounds; about 710 (0.99%) were called active. The shares of active, inactive and inconclusive entries below differ from those in the screen. The call rests on the fitted dose curve; in most records, active means well fitted inhibition curve with a large enough effect; inconclusive means small, poorly fitted or top-dose-only effect; inactive means no such curve, though single readings can be large or run the other way. Potencies of inconclusive entries are left out as doubtful fits.
# Test: qHTS Assay for Inhibitors of the ERK Signaling Pathway using a Homogeneous Screening Assay; further: nearly all actives have a fitted effect of over 55% in size
# Details: HEK293-V1b, vasopressin-stimulated pERK AlphaScreen; activity, negative = inhibition: at 57.5 µM (top of the series) unless noted
# Method in brief: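 HEK293 cells stably expressing V1b receptor, preincubated 30 min at 37 °C with compound, then stimulated 5 min with 25 nM vasopressin. Phospho-ERK by AlphaScreen SureFire after 5 h RT; normalized to DMSO and vasopressin; AC50 by Hill fit.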
# On the % scale 0 is the no-effect control and ±100 the full control effect; potency means the concentration at half of the fitted maximal effect; tags describe the fitted curve by direction and shape.
Compound,Potency,"activity, negative = inhibition"
Cc1nc2c([nH]c3ccc(Br)cc32)s1,"inconclusive [inhibitor, full curve, poor fit]",
Nc1nc(C(=O)N2CCOCC2)nn1S(=O)(=O)c1ccccc1,"inconclusive [inhibitor, partial curve]",
C/C(=C\C(=O)c1ccc(F)cc1)Nc1ccc(N2CCOCC2)cc1,"inconclusive [inhibitor, partial curve]",
Cc1cc(C(=O)Nc2ccc(C(=O)O)cc2)c(-c2ccccc2)o1,"inconclusive [inhibitor, partial curve]",
COc1ccc(C(=O)OCCNC(=O)c2c(Cl)nc3ccccn23)cc1,"inconclusive [inhibitor, partial curve]",
CCNc1ncc2nc(-c3cn(C)c4ccccc34)c(=O)n(-c3ccccc3)c2n1,"inconclusive [inhibitor, full curve, poor fit]",
COC(=O)c1nn(-c2c(C)n(C)n(-c3ccccc3)c2=O)cc1O,"inconclusive [inhibitor, single point]",
O=C(Nc1ccc(Cl)cc1C(=O)NCC1CCCO1)c1ccco1 (centres undefined),"inconclusive [inhibitor, full curve, poor fit]",
CN1CCc2c(sc3c2C(=O)NC(c2ccco2)N3)C1 (centres undefined),"inconclusive [inhibitor, partial curve]",
O=C(CSc1nc2scc(-c3ccco3)c2c(=O)n1-c1ccccc1)NCC1CCCO1 (centres undefined),"inconclusive [inhibitor, partial curve, poor fit]",
O=c1oc2c(CN3CCCCCC3)c(O)ccc2cc1-c1nc2ccccc2[nH]1,inactive,
O=C(Nc1ccc(-c2nnc(-c3ccccc3)o2)cc1)c1ccc(Br)o1,"inconclusive [inhibitor, partial curve, poor fit]",
Cn1cccc1C(=O)OCC(=O)Nc1ccc2c(c1)CCC2,"inconclusive [inhibitor, full curve, poor fit]",
CC(C)c1cc(C(N)=O)c(NC(=O)C2CCC2)s1,"inconclusive [inhibitor, single point]",
O=C(NC1=NCCS1)c1ccc2c(c1)C(=O)N(Cc1ccco1)C2=O,inactive,
CCOC(=O)C1=C(C)NC(=O)NC1/C(C)=C/c1ccccc1 (centres undefined),active: 31.6 µM,
COc1ccc(N2CCN(C(=O)c3ccc(NS(=O)(=O)c4ccc(F)cc4)cc3)CC2)cc1,"inconclusive [inhibitor, partial curve]",
COC(=O)C1=CN(C(C)C)C=C(C(=O)OC)C1c1cc2c(cc1Br)OCO2,"inconclusive [inhibitor, single point]",
Cc1c(Br)c(C(F)(F)F)nn1CC(=O)NCC1CCCO1 (centres undefined),inactive,
COc1ccc(Cc2nc(-c3ccc(-n4cccc4)cc3)no2)cc1OC,inactive,
O=C(c1cc(-c2cccs2)on1)N1CCN(c2ccccc2)CC1,"inconclusive [inhibitor, single point]",
COc1ccccc1C(=O)NCc1ccc2c(c1)OCO2,inactive,
COc1ccc(S(=O)(=O)N2CC(O)CC2C(=O)OCC(=O)Nc2ccc(Cl)cn2)cc1 (centres undefined),"inconclusive [inhibitor, single point]",

Compound,Potency,"activity, negative = inhibition"
COc1ccc(/C=C/C(=O)c2cccs2)cc1OC,"inconclusive [inhibitor, partial curve]",
NC(=O)c1ccc(-c2nc(-c3ccc4c(c3)OCO4)c(-c3ccccn3)[nH]2)cc1,"inconclusive [inhibitor, single point]",
Oc1ccccc1-c1cc(C(F)(F)C(F)F)[nH]n1,"inconclusive [inhibitor, single point]",
CCOc1ccc(C2CC(c3cccc(OC)c3)n3nc(N)nc3N2)cc1 (centres undefined),"inconclusive [inhibitor, partial curve]",
C=CCOCC1CN2C(CCC(C)C2c2ccc(Br)cc2)C(=O)O1 (centres undefined),,inactive: -4.65% [at 11.5 µM]
Cc1cc(C)c(C#N)c(SCC(=O)Nc2ccc(S(=O)(=O)Nc3onc(C)c3C)cc2)n1,"inconclusive [inhibitor, single point]",
Cc1occc1-c1nnc(SCC(=O)Nc2ccccc2)n1C(C)c1ccccc1 (centres undefined),"inconclusive [inhibitor, single point]",
O=C(NCCCN1CCOCC1)c1cc(-c2ccc(Br)cc2)on1,"inconclusive [inhibitor, partial curve]",
CCCCOC(=O)CSC1=C(C#N)C(c2ccccc2OCC)C(C#N)C(=O)N1 (centres undefined),"inconclusive [inhibitor, partial curve]",
Cn1c(C(=O)Nc2ccc3c(c2)OCO3)cc2sccc21,"inconclusive [inhibitor, partial curve]",
CCOC(=O)c1c(C)oc2ccc(OCC(N)=O)cc12,"inconclusive [inhibitor, full curve]",
CCCn1c(-c2ccc(F)cc2)nc2c(NCCCN3CCCCC3C)nc(C)nc21 (centres undefined),inactive,
CN1CCc2cccc3c2C1Cc1ccc(O)c(O)c1-3 (centres undefined),inactive,
Clc1ccccc1-c1ccc(/C=N/n2cnnc2)o1,"inconclusive [inhibitor, partial curve]",
CC(=O)Nc1ccc(C(=O)CSc2ncn(-c3ccccc3)n2)cc1,"inconclusive [inhibitor, single point]",
CCOC(=O)C1CCN(C(=O)c2cc3c(-c4ccc(OC)c(OC)c4)nn(C)c3s2)CC1,"inconclusive [inhibitor, partial curve]",
c1ccn2c(CNc3ncnc4sccc34)nnc2c1,"inconclusive [inhibitor, partial curve, poor fit]",
CSc1nc2c(c(-c3ccc(O)cc3)c1C#N)CCC2,"inconclusive [inhibitor, partial curve]",
COc1ccc(Br)cc1C1CC(=O)N2CN(C)CSC2=C1C#N (centres undefined),inactive,
COc1cccc(-c2nccc(NCc3ccccc3OC)n2)c1,"inconclusive [inhibitor, single point]",
O=C1CCCc2c1[nH]c1ccc(Br)cc21,"inconclusive [inhibitor, single point]",
CCN(CC)c1ccc(NC(=O)c2cncc(Br)c2)cc1,"inconclusive [inhibitor, partial curve]",
CCOc1ccccc1C1CC(c2ccc(Br)cc2)Nc2nc(N)nn21 (centres undefined),"inconclusive [inhibitor, single point]",

Compound,Potency,"activity, negative = inhibition"
Cc1nc(NCc2ccccc2)c2nc(-c3ccccc3)n(C3CCN(Cc4ccccc4)C3)c2n1 (centres undefined),"inconclusive [inhibitor, single point]",
COc1ccc(-n2nc(C(=O)N3CCN(Cc4ccc5c(c4)OCO5)CC3)c3ccccc3c2=O)cc1,inactive,
Clc1ccccc1Cn1nnc2c(Nc3ccccc3)ncnc21,"inconclusive [inhibitor, single point]",
O=C(NC1CCCC1)c1cc(-c2cccs2)on1,inactive,
COCCCNC(=O)c1cc2c(=O)n(C)c3ccccc3c2n1C,"inconclusive [inhibitor, full curve, poor fit]",
O=C(c1ccco1)N1CCC2(CC1)CCN(c1ccccn1)CC2,"inconclusive [inhibitor, single point]",
COc1ccc(NC(=O)C2CCN(S(=O)(=O)c3cccc4cccnc34)CC2)cc1OC,"inconclusive [inhibitor, single point]",
O=C(COc1ccccc1)N(Cc1ccco1)c1ccc(O)cc1,inactive,
CCC(Sc1nnc(C)s1)C(=O)Nc1nccs1 (centres undefined),"inconclusive [inhibitor, single point]",
COc1cccc(Nc2ncc3nc(-c4ccccc4)c(=O)n(C)c3n2)c1,inactive,
CCOc1ccccc1C(=O)Nc1ccc(S(=O)(=O)N2CCOCC2)cc1,inactive,
Cn1c(=O)cc(SCC(=O)Nc2cccnc2)c2ccccc21,"inconclusive [inhibitor, partial curve]",
COc1ccc(Oc2ncc3nc(-c4cn(C)c5ccccc45)c(=O)n(C)c3n2)cc1,inactive,
COc1cccc(-c2nc(CS(=O)CC(=O)NCc3ccc4c(c3)OCO4)c(C)o2)c1 (centres undefined),"inconclusive [inhibitor, partial curve]",
CCN(C(=O)c1cn(C)c(=O)c2cc(OC)c(OC)cc12)c1cc(C)ccc1C,inactive,
O=C1CC(c2ccccc2)Cc2nc(N3CCc4ccccc43)ncc21 (centres undefined),inactive,
COc1ccc(NC(=O)N2CCN(c3nc(-c4cccc(OC)c4)cs3)CC2)cc1,"inconclusive [inhibitor, single point]",
COC(=O)c1ccc(Cl)c(NC(=O)CN2CCOCC2)c1,inactive,
O=c1c(-c2ccc(F)c(F)c2)nc2cncnc2n1Cc1ccccc1Cl,"inconclusive [inhibitor, partial curve]",
CN(C)C(=O)c1ccc(-c2nccc(NCc3ccccc3)n2)cc1,"inconclusive [inhibitor, partial curve]",
COC(=O)c1[nH]c2ccc(C)cc2c1NC(=O)CN1CCCCC1C (centres undefined),inactive,
CN(Cc1ccco1)c1ncnc2ccc(-c3cccnc3)cc12,"inconclusive [inhibitor, full curve, poor fit]",
CCCCn1c(SCC(=O)NC(=O)NCc2ccco2)nc2cc(S(N)(=O)=O)ccc21,"inconclusive [inhibitor, partial curve]",
